{
  "source": "PubChem BioAssay AID1347417",
  "about": "(National Center for Advancing Translational Sciences (NCATS), 2020)",
  "note": "Screen size: about 120,000 compounds; about 5,300 (4.4%) were called active. This list was built around the results that the source calls inconclusive (neither active nor inactive); the mix of calls is not that of the screen. Calls come from the whole dose curve; as a rule, active = well fitted inhibition curve with a large enough effect; inconclusive = small, poorly fitted or top-dose-only effect; inactive = no such curve, though single readings can be large or run the other way. A potency beside an inconclusive call is a rough fit, not a confirmed value. Potency is the fitted concentration of half-maximal effect; tags give direction and shape of the fitted curve.",
  "data": [
    {"assay": "qHTS Primary assay for Inhibitors of Plasmodium falciparum Dd2 growth in vitro; note: nearly all actives have a fitted effect of over 65% in size;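 for activity, negative = inhibition: plate controls were DMSO vehicle for no effect and reference drug for full effect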", "settings": "P. falciparum Dd2 growth, SYBR Green, 72 h; activity, negative = inhibition: at 28.9 µM (top of the series) unless noted; series mostly up to 28.9 µM", "outline": "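Readout: SYBR Green fluorescence, 485 nm excitation, 535 nm emission, after ~16 h lysis at 37C. Before that, Dd2-infected red cells (2.5% hematocrit) grew 72 h with compound, 29 uM top final concentration.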", "values": [
      {"smiles": "O=C(NC[C@H]1O[C@@H](CO)[C@@H](O)[C@H]1N1CCN(c2cccc(C(F)(F)F)c2)CC1)Nc1ccccc1", "activity, negative = inhibition": "inactive: -8.02%"},
      {"smiles": "CCOc1ccccc1C(=O)N1CCC(Cc2nc(-c3ccc(F)cc3)no2)CC1", "Potency": "inconclusive: 5.01 µM [inhibitor, partial curve, poor fit]"},
      {"smiles": "O=C(O)c1ccnc(-c2ccnc(NCCc3noc(C4CCC4)n3)n2)c1", "activity, negative = inhibition": "inactive: 6.62%"},
      {"smiles": "O=C(c1cccc(OC2CN(Cc3cccc(F)c3)C2)c1)N1CCOCC1", "Potency": "inconclusive: 2.82 µM [inhibitor, partial curve, poor fit]"},
      {"smiles": "O=C(c1cc(-c2ccc(Br)cc2)n[nH]1)N1CCN(S(=O)(=O)c2ccc(Cl)s2)CC1", "Potency": "inconclusive: 11.2 µM [inhibitor, partial curve, poor fit]"},
      {"smiles": "O=C1N[C@@H]2CCN(S(=O)(=O)c3ccccc3)[C@@H]2C(=O)N1c1ccc(Oc2ccccc2)cc1", "Potency": "inconclusive: 11.2 µM [inhibitor, single point]"},
      {"smiles": "CC1=NS(=O)(=O)N(Cc2ccccc2)C=C1C(=O)OCc1noc(-c2ccc(C)c(C)c2)n1", "Potency": "inconclusive: 17.8 µM [inhibitor, partial curve, poor fit]"},
      {"smiles": "Cc1nnc(CN2CCC(N3CCCC(C(=O)NCCc4ccccc4)C3)CC2)o1", "note": "(centres undefined)", "activity, negative = inhibition": "inactive: -0.542%"},
      {"smiles": "COc1ccc(CNS(=O)(=O)c2cc3c(cc2Cl)NC(=O)CO3)cc1", "activity, negative = inhibition": "inactive: 38% [at 0.594 µM]"},
      {"smiles": "Oc1ccccc1CN1C[C@H](O)C[C@H]1c1nc(-c2ccccc2)no1", "Potency": "inconclusive: 15.8 µM [inhibitor, single point]"},
      {"smiles": "CNc1nccc(N2CCC(CC(=O)N(C)CCCc3c(C)nn(C)c3C)CC2)n1", "Potency": "inconclusive: 17.8 µM [inhibitor, single point]"},
      {"smiles": "CCOc1ccccc1C(=O)N1CCc2cc(OC)c(OC)cc2C1COc1ccc(OC)cc1", "note": "(centres undefined)", "Potency": "inconclusive: 11.2 µM [inhibitor, single point]"},
      {"smiles": "CCc1cc(=O)n(CC(=O)Nc2cc(OC)ccc2OC)c(-c2ccccc2)n1", "Potency": "inconclusive: 5.01 µM [inhibitor, partial curve, poor fit]"},
      {"smiles": "O=C1CCC2(CCN(C/C=C/c3ccccc3)CC2)CN1CCCn1ccnc1", "Potency": "active: 10 µM"},
      {"smiles": "O=C(N1CCN(Cc2ccccc2)CC1)C1(c2ccc(Cl)cc2)CCOCC1", "Potency": "inconclusive: 7.94 µM [inhibitor, partial curve]"},
      {"smiles": "O=[S+]1([O-])NC2(CCCN(Cc3ccc(OC(F)(F)F)cc3)C2)CNc2ccccc21", "note": "(centres undefined)", "outcome": "inactive"},
      {"smiles": "CC(C)=CCC1(CO)CCCN(Cc2ccccc2OCCO)C1", "note": "(centres undefined)", "Potency": "active: 12.6 µM"},
      {"smiles": "COc1cccc(CN2CCc3c(cc(C(=O)Nc4cc(C)ccc4OC)n3C)C2)c1", "Potency": "inconclusive: 2.24 µM [inhibitor, partial curve, poor fit]"},
      {"smiles": "CCN(CC)C1CCN(C(=O)c2cc(OC)ccc2OC2CCN(C(=O)C3CC3)CC2)C1", "note": "(centres undefined)", "activity, negative = inhibition": "inactive: 1.97%"},
      {"smiles": "CCOC(=O)c1cc(-c2ccc(F)cc2)n(CCC(=O)Nc2cc(OC)cc(OC)c2)c1C", "Potency": "inconclusive: 3.16 µM [inhibitor, full curve, poor fit]"},
      {"smiles": "Cc1nc2ccc(Cl)cn2c1C(=O)NC1CCOC2(CCOCC2)C1", "note": "(centres undefined)", "Potency": "inconclusive: 12.6 µM [inhibitor, single point]"},
      {"smiles": "COc1cccc(CNC(=O)c2ccc(-n3c(C)cc4c3CCCC4)cc2)c1", "Potency": "inconclusive: 10 µM [inhibitor, single point]"},
      {"smiles": "CNC1CCCc2ccccc21", "note": "(centres undefined)", "Potency": "inconclusive: 22.4 µM [inhibitor, single point]"},
      {"smiles": "CC(C)OCCCN1C(=O)c2[nH]nc(-c3ccccc3O)c2C1c1ccccc1F", "note": "(centres undefined)", "Potency": "active: 11.2 µM"},
      {"smiles": "O=C(NCC1CCN(Cc2cccc(Cl)c2)CC1)Nc1ccc(F)c(Cl)c1", "Potency": "inconclusive: 12.6 µM [inhibitor, partial curve, poor fit]"},
      {"smiles": "COCCNC(=O)C[C@@H]1c2nc(NC(=O)c3ccc(F)cc3)sc2C[C@@H]2[C@](C)(CO)[C@H](O)CC[C@]21C", "Potency": "inconclusive: 8.91 µM [inhibitor, partial curve, poor fit]"},
      {"smiles": "CCC1(N2CCN(S(=O)(=O)c3ccc(F)c(C)c3)CC2)CCN(C(=O)C(C)C)C1", "note": "(centres undefined)", "Potency": "inconclusive: 17.8 µM [inhibitor, single point]"},
      {"smiles": "CCc1ccc(C(=O)CC2(O)C(=O)N(Cc3ccc(C)cc3)c3ccccc32)cc1", "note": "(centres undefined)", "activity, negative = inhibition": "inactive: -21.9%"},
      {"smiles": "CCc1ccccc1NC(=O)c1cc2nc(-c3ccc(Br)cc3)cc(C(F)(F)F)n2n1", "Potency": "inconclusive: 17.8 µM [inhibitor, single point]"},
      {"smiles": "O=C(Cc1ccc(F)cc1)N1CCC(c2nn(-c3ccc(Cl)cc3)c(=O)[nH]2)CC1", "outcome": "inactive"},
      {"smiles": "O=C(c1ccco1)N(Cc1cccs1)c1ccc(F)cc1", "Potency": "inconclusive: 17.8 µM [inhibitor, single point]"},
      {"smiles": "CCOc1ccc(-c2noc(-c3nc(-c4ccncc4)no3)n2)cc1", "activity, negative = inhibition": "inactive: -24.6%"},
      {"smiles": "CCC(C)C1=NS(=O)(=O)c2cc(NC(=O)C3CC3)ccc2N1c1ccccc1", "note": "(centres undefined)", "Potency": "inconclusive: 0.398 µM [inhibitor, full curve, poor fit]"},
      {"smiles": "CN(C)CCCn1c(-c2ccc(Cl)cc2)csc1=Nc1ccccc1", "Potency": "inconclusive: 3.98 µM [inhibitor, single point]"},
      {"smiles": "CCOc1ccc(CCNc2nc(-c3ccccc3)no2)cc1", "outcome": "inactive"},
      {"smiles": "O=C1NCc2ccccc2CC12CCN(Cc1c[nH]c3ccccc13)C2", "note": "(centres undefined)", "Potency": "inconclusive: 7.08 µM [inhibitor, partial curve, poor fit]"},
      {"smiles": "C#C[C@H]1CN2CC[C@H]1C[C@@H]2CNS(=O)(=O)c1cccc(F)c1", "Potency": "active: 8.91 µM"},
      {"smiles": "CCn1c(C2CCN(C(=O)CCNC(=O)c3ccc(F)cc3)CC2)n[nH]c1=O", "activity, negative = inhibition": "inactive: -23.9%"},
      {"smiles": "CC(C)(C)c1ccc(C(=O)N2CCCC(c3nc4c(nnn4Cc4cccc(F)c4)c(=O)[nH]3)C2)cc1", "note": "(centres undefined)", "Potency": "active: 1.58 µM"},
      {"smiles": "COc1ccc(CCNC(=O)CN2C(=O)NC(c3ccccc3Cl)C3=C2COC3=O)cc1OC", "note": "(centres undefined)", "outcome": "inactive"},
      {"smiles": "CCOc1ccc(NC(=O)CSc2c3c(nc4ccccc24)CCCC3)cc1", "Potency": "inconclusive: 11.2 µM [inhibitor, single point]"},
      {"smiles": "COc1ccc(-c2cc(N3CCCC(NC(=O)c4cc(F)ccc4Cl)C3)n[nH]2)cc1", "note": "(centres undefined)", "Potency": "active: 8.91 µM"},
      {"smiles": "CN1CC(=O)N(C2CCNCC2)Cc2c(NCCc3cccc(F)c3)ncnc21", "activity, negative = inhibition": "inactive: -16.6%"},
      {"smiles": "COc1cccc(Cn2nnc3c(=O)[nH]c(C4CCCN(C(=O)c5ccccc5Cl)C4)nc32)c1", "note": "(centres undefined)", "Potency": "inconclusive: 15.8 µM [inhibitor, single point]"},
      {"smiles": "Oc1cccc(-c2cc(-c3cccnc3)c3cncn3c2)c1", "Potency": "inconclusive: 4.47 µM [inhibitor, single point]"},
      {"smiles": "Cc1ccc(C(=O)N2CCCCCCN(C)C(=O)[C@@H]3CCC[C@@H]32)cn1", "activity, negative = inhibition": "inactive: -0.757%"},
      {"smiles": "CCCn1cnnc1CNC(=O)CC1C(=O)NCCN1Cc1ccoc1", "note": "(centres undefined)", "Potency": "inconclusive: 0.224 µM [inhibitor, full curve, poor fit]"},
      {"smiles": "O=C(CC1CCCCC1)NC1CCN(c2cnn(Cc3ccccc3)c(=O)c2)CC1", "Potency": "inconclusive: 4.47 µM [inhibitor, partial curve, poor fit]"},
      {"smiles": "CC(=O)NCCC(=O)N1Cc2ccccc2CC2(CCCCN2CC2CCCC2)C1", "note": "(centres undefined)", "Potency": "inconclusive: 8.91 µM [inhibitor, partial curve]"},
      {"smiles": "COC(=O)C1=C(C)N=C2SC=C(CC(=O)NCc3ccccc3)N2C1c1ccccc1OC", "note": "(centres undefined)", "Potency": "inconclusive: 3.98 µM [inhibitor, single point]"},
      {"smiles": "Cc1cccc(NC(=O)c2ccc(CN3CC(=O)N4CCCCC4C3=O)cc2)c1C", "note": "(centres undefined)", "activity, negative = inhibition": "inactive: 7.04%"},
      {"smiles": "Cc1ccc(-c2nc(C(=O)NCc3ccc(F)cc3F)no2)cc1", "activity, negative = inhibition": "inactive: 59.5%"},
      {"smiles": "Cc1ccc2oc(-c3cccc(NC(=O)c4cccc5c(Cl)cccc45)c3)nc2c1", "Potency": "inconclusive: 0.631 µM [inhibitor, full curve, poor fit]"},
      {"smiles": "Fc1ccccc1CN1CCCC2(CCN(c3cnccn3)C2)C1", "note": "(centres undefined)", "Potency": "inconclusive: 10 µM [inhibitor, single point]"},
      {"smiles": "COc1ccc(-c2cc(N3CCCN(C(=O)Cc4cccc(OC)c4)CC3)n[nH]2)cc1", "Potency": "inconclusive: 3.16 µM [inhibitor, single point]"},
      {"smiles": "Cc1ccc(C)c(N2CCN(C(=O)c3noc(-c4ccc[nH]c4=O)n3)CC2)c1", "Potency": "inconclusive: 11.2 µM [inhibitor, single point]"},
      {"smiles": "CCOc1ccc(OCC)c(NC(=O)C2CCN(S(=O)(=O)c3ccc4c(c3)CC(C)N4C(C)=O)CC2)c1", "note": "(centres undefined)", "Potency": "inconclusive: 17.8 µM [inhibitor, single point]"},
      {"smiles": "Cn1cccc1CN1CCCC2(Cc3ccccc3CNC2=O)C1", "note": "(centres undefined)", "Potency": "inconclusive: 0.631 µM [inhibitor, full curve, poor fit]"},
      {"smiles": "CCOc1ccccc1NC(=O)N1CCC(N2CC3CC(C2)[C@H]2CCCC(=O)N2C3)CC1", "note": "(some centres undefined)", "Potency": "inconclusive: 20 µM [inhibitor, single point]"},
      {"smiles": "O=C(CN1C(=O)NC2(CCCCC2)C1=O)N1CCN(c2ccccc2)CC1", "activity, negative = inhibition": "inactive: 18.3%"},
      {"smiles": "Cc1c(CC(=O)NCc2cccnc2)c2c(n1CC(C)C)CC(C)(C)CC2=O", "outcome": "inactive"},
      {"smiles": "COc1ccccc1S(=O)(=O)Cc1ccc(C(=O)N2CCN(c3cc(Cl)ccc3C)CC2)o1", "Potency": "inconclusive: 10 µM [inhibitor, single point]"},
      {"smiles": "Cc1ccc(CN2CCCCCCNC(=O)[C@@H]3C[C@@H](C(=O)NCCc4cnc[nH]4)C[C@@H]32)o1", "Potency": "inconclusive: 7.08 µM [inhibitor, partial curve, poor fit]"},
      {"smiles": "COC(=O)c1c(-c2ccc(Cl)cc2)noc1N1CCN(c2ccccc2OC)CC1", "Potency": "inconclusive: 11.2 µM [inhibitor, single point]"}
    ]}
  ]
}
